Laboratory results taken from the supplement of paper PMC3334620.
In all, about 33,000 sequences were measured (“E-score (-0.5 to 0.5)”: median about -0.016, highest 2% from about 0.32 on). The list shows a part of the results.

The sequences below were run against T1, Stp1 (UniProt B3LFK1) (assay: PBM E-score (8-mer binding enrichment) (E-score (-0.5 to 0.5)); higher = stronger / more preferred TF binding; most listed sequences are background and not binding sites). Conditions: protein concentration: 200 nM; construct: GST-full length.
T1 sequence: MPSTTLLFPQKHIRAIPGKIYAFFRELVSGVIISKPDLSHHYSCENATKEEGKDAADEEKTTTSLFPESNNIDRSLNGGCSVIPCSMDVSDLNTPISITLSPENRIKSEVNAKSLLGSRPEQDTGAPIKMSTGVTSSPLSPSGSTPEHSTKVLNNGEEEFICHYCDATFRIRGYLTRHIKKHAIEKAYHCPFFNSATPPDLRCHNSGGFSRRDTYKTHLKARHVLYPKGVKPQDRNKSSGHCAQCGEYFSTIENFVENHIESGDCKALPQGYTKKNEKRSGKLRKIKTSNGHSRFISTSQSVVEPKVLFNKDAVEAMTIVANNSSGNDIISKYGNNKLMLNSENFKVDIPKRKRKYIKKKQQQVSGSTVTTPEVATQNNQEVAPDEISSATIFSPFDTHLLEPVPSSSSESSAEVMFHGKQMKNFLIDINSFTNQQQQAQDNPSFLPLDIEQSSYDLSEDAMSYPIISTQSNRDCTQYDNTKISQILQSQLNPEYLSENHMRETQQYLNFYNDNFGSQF
Summary of the method: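 For each ungapped eight-base word taken together with its reverse complement, the Universal PBM Analysis Suite assigned an E-score. Binding data came from GST-tagged yeast transcription factors, applied at about 100-200 nM, on universal all-10-mer Agilent arrays made double-stranded by primer extension. Fluorescent anti-GST marked bound protein, and scans were normalised with masliner.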

Sequence	PBM E-score
CCGCTAAG	0.0446
CGGGCCCG	-0.0471
AGCTCCGA	-0.202
GCGTCTCC	0.168
CTTCGTTC	-0.283
CGAGACCC	-0.0122
CGTGTTCC	-0.0411
GAGACGAA	-0.0792
AAGAACTT	-0.0275
ACCCAACC	-0.0719
TCGGCAGA	-0.0589
GCGGTAGC	-0.0371
ATACGGTA	0.233
ATACCACA	0.0264
CACCTGGC	-0.22
GAGTAGGC	0.0866
AGGTGCCA	-0.0228
CTTGATGC	0.0431
AGATGGAG	-0.0947
GAAAAAAC	0.101
CTTTCTCA	0.194
ATAATGAT	0.166
AAATCAAG	0.161
ACATGACA	0.0011
GTATCTTA	0.218

Sequence	PBM E-score
CCAAATAA	0.101
ATGGTATG	-0.0816
ACCTAACC	-0.199
CCAATCTC	-0.0161
AGGGGGAC	-0.386
CCAGGTGA	-0.176
ACCGCTTC	-0.116
TCAGCAGA	-0.0689
AGTACACT	-0.071
GTTCCGAA	0.0739
TAGGGGGA	-0.373
TTTCAAAA	0.241
AACTGGTA	-0.105
ATTAACCA	0.0867
CCGAGCAG	0.0183
AACACCAG	-0.309
AACGAGGT	-0.111
GTGTTTTA	0.116
CCTCCGGA	-0.321
GGGCATGA	-0.0369
CCCCGATC	-0.427
ACGAGGCT	0.323
CTAATGGA	-0.0401
CTATATTC	-0.141
ACAGTAAG	0.0834

Sequence	PBM E-score
ATCTCCAA	-0.0663
CCGGAAGC	0.00357
AGTCGCTG	-0.0658
TAAGTGGA	-0.0459
ATTCAACC	-0.0803
AGTTAAAT	0.133
GTCAAGCA	-0.2
CGGTCTCA	-0.0356
GTCCCTCA	-0.234
TCGATGAA	0.0501
ATTCTCTC	-0.131
ATCATCAA	0.08
GCTACAAC	-0.194
TAGCGGGA	-0.254
AAGTGAGA	-0.156
TAACTGCA	-0.00649
CTACAATA	0.181
CGCTCGTA	0.108
ACGTGTCA	-0.0154
ACAGTTCT	-0.0254
CGAGCAAG	-0.213
TCTGCGAA	-0.129
GCGGTGAC	-0.0836
TAAGGCCA	0.0323
CTACGCGC	0.117

Sequence	PBM E-score
GCGATTGA	0.03
AACAGAAG	0.132
CAGCTTTC	-0.1
GCGGGGCA	0.202
CCGTGTAA	0.25
AAGGCACC	0.402
CTACTCAA	0.16
GACTCAGC	-0.128
ACTCAGTA	0.0277
CAACGCCG	0.391
CCACAAGC	-0.13
ACTCCGAG	-0.12
CGCCGTAC	0.487
CTGCTCTC	-0.234
GCATCTAC	0.0127
GACGACCC	-0.149
AACTCCCT	-0.221
CATTTATC	0.153
GACAGATC	0.0305
ACAAAACC	0.0627
GTTTTATA	0.226
ACGATTCT	0.0374
ACTCAATG	0.0341
ACCTCGGG	-0.201
GAGGGTAA	-0.0792

Sequence	PBM E-score
CGGGGTAC	-0.228
CAGGTCGC	-0.161
ACTGTAGA	0.0582
AGGGTATA	-0.0768
ATGGGTTC	-0.355
TCAAATAA	0.171
ATTTCTCA	0.114
AATGTCGC	-0.0462
CTCCGGCA	0.104
GGGTCGAC	-0.151
CCAAGGCA	0.173
ACCGTGTC	0.155
GACCCAAC	-0.0726
ACACTTCC	0.00565
AAGCTTTA	-0.0675
CAGCGTAC	-0.112
CTCCTTTC	-0.138
ATATAGGA	-0.0171
CCATCACC	-0.291
GCGGGGGA	-0.304
ATCACTTG	-0.135
GGTCGCAA	-0.119
CGTATAAA	0.319
ATGTGATC	0.117
GCCTATCA	0.073

Sequence	PBM E-score
ATGTAAGC	0.0689
AGGCCTTA	-0.148
CAATGACG	-0.0834
TATTATCA	0.0807
GTAATCGA	0.138
TGGAAACA	-0.173
GAGATTCA	-0.104
AGTGGCTA	0.08
ACGAACAC	0.138
CCTAAAGA	0.0446
CACCGTAC	0.121
AAATCCTG	-0.00931
GGATTTTA	-0.113
CTACGTAG	0.037
AAGCGTCT	-0.159
CATGCTTA	-0.106
TCTAATCA	0.0164
AATAGACC	-0.159
ACCGTAAT	-0.0371
GATGTCAC	-0.183
ATGAGAAC	0.0468
ATCATGAC	0.00813
ACAAGCGG	0.203
ACTATCAA	0.0687
CCAGCCGA	-0.179

Sequence	PBM E-score
CGGAACTC	-0.147
CTCGTTTA	0.101
CGTTTCCA	0.159
CCCTTGAC	-0.126
CAACTATG	-0.0146
CGATTTCA	-0.0348
CAGGACTA	-0.153
CGGCGTCA	0.399
CTTTTTAA	-0.0582
CTCTGCAG	-0.172
AAGATCTT	-0.00602
CCCATCTC	-0.0264
CGCGACAG	-0.0374
CGCACAGA	0.0304
CTCCGTAA	-0.0763
AAGCGGAG	-0.0617
GAGGCCCA	-0.271
AGCCCCTA	-0.372
AAAGACAG	0.0275
CCCAGTAG	-0.184
GGCATAAA	0.314
GTAGGAGA	-0.262
AGAGGGCG	0.307
GACCTGAC	-0.166
ACAGTGAA	0.0428

Sequence	PBM E-score
AAGTTATC	-0.0807
CTCGAGAG	-0.145
GGATAACC	-0.222
CCTACTCA	-0.0428
CGTTTCCC	-0.109
AATGTACC	-0.118
TGAACTAA	0.118
CATCCTGA	0.0864
CCATGGTA	-0.117
ACGGTGAG	0.0989
GAGATCGC	-0.0892
AGAAACGA	0.0281
ATGCCCCG	0.0467
ACATCCCC	-0.136
ACACGTTG	-0.0454
TACCGCAA	0.117
CCTCTGAG	-0.176
CCCCCAAA	-0.296
ACCCGTTC	0.0622
CCTGAGAG	-0.283
AAGCCACC	-0.249
CGAGCTAG	-0.0273
ATGACAAA	-0.00771
AATTGGCT	0.129
ACTAAACT	0.134

Sequence	PBM E-score
CGTTTAAC	0.0581
GTGTCATA	0.0704
CGAAGGCG	0.128
ATCTAACC	-0.0609
AGAGGACA	-0.18
CCCAACGG	-0.0673
AGTTCGCA	0.0346
ATCGCGAC	-0.00642
AACCGCAT	0.188
CCCTACCA	0.0901
CTACTGTA	0.0443
TGGTCTAA	-0.0611
AAAATTGA	0.118
AGTTTGCC	0.157
GCGGCAGA	0.261
CGAAAGGC	0.355
GACAGGCC	-0.184
CGAAGCGC	-0.0203
TACTCTCA	-0.0702
